Data on 51 compounds can be found in PubChem BioAssay AID1645882 (National Center for Advancing Translational Sciences (NCATS), 2021).

Out of some 16,000 compounds screened, about 120 (0.75%) were called active. About 4% were inconclusive and are not listed. The call rests on the fitted dose curve; in most records, active means well fitted inhibition curve with a large enough effect; inconclusive means small, poorly fitted or top-dose-only effect; inactive means no such curve, though single readings can be large or run the other way. The list shows a part of the results. Where a SMILES comes first, the peptide text is derived from it. The star is where a group is joined. Cbz = O=C(OCc1ccccc1)*; CH2F = FC*

The assay has as its target Rap guanine nucleotide exchange factor 3 (Homo sapiens) (UniProt O95398). In words: Validation qHTS for antagonist of cAMP-regulated guanine nucleotide exchange factor 3 (EPAC1).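 Further: plate controls were DMSO for no effect and ATA control for full effect; nearly all actives have a fitted effect of over 75% in size.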 To be noted: EPAC1 Rap1B-BODIPY-GDP exchange, fluorescence; series mostly up to 150 µM; activity change, negative = inhibition: at the top concentration. A digest of the protocol: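 EPAC1 (100 nM) mixed with 250 nM RAP1B-BODIPY-GDP and 50 uM GDP; compounds in concentration series, 5 min at room temperature. Fluorescence (ex 480/em 540 nm) read every 5 min for 30 min; normalized to ATA control and DMSO.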
Chain of UniProt O95398 (O95398 whole entry, looked up): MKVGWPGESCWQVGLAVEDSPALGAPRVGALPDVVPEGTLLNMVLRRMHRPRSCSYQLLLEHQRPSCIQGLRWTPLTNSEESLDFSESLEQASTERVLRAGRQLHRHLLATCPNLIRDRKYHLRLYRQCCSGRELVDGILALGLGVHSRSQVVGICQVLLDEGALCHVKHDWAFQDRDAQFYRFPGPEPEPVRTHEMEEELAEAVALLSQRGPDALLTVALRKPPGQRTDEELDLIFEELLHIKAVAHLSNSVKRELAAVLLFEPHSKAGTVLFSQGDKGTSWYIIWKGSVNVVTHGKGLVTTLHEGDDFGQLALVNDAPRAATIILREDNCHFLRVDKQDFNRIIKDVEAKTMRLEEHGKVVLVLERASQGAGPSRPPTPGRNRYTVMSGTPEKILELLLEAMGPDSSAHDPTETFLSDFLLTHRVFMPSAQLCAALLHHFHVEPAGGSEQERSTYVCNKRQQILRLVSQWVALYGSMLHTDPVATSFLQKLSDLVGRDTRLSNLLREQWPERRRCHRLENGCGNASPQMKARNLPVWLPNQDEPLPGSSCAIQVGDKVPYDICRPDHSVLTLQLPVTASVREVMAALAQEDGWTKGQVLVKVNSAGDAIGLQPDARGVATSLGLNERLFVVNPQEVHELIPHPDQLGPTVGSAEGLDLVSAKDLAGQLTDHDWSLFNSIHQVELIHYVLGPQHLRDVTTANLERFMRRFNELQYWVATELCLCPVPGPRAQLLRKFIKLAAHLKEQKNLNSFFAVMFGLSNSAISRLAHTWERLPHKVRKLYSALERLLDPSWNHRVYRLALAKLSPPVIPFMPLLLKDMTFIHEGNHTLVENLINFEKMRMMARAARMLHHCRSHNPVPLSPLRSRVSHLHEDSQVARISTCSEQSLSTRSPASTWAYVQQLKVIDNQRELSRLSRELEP
For the compound `CCNc1ncc2nc(-c3ccc(F)cc3)c(=O)n(-c3ccc(OC)cc3)c2n1`, the “activity change, negative = inhibition” value is inactive: 19.4%. Next, `C[C@]12CCC(=O)C=C1CC[C@@H]1[C@@H]2[C@@H](O)C[C@@]2(C)[C@H]1CC[C@]2(O)C(=O)CO`: inactive: 5.68% [at 75.8 µM]; `CCC(=O)OC1C2CC3=C4CC(=O)OC(c5ccoc5)[C@]4(C)CCC3[C@@](C)(C2=O)C(CC(=O)OC)C1(C)C` (stereo partly specified): inactive: -8.44%. In the case of `COc1cccc(-c2cncnc2NCc2cccs2)c1` it was inactive: 8.95%. Next, `COCC(=O)N1CCC2(CCN(Cc3cc(C(F)(F)F)cc(C(F)(F)F)c3)CC2)CC1`: inactive: 15.9%. As for `O=C(NCCc1cccnc1)c1cnn(-c2ncc3c(n2)-c2ccccc2CC3)c1C1CC1`, the “activity change, negative = inhibition” value is inactive: 18.3%.

Take `CCCC(=O)Nc1nc2c(ncn2[C@@H]2O[C@H]3COP(=O)(O)O[C@@H]3[C@@H]2OC(=O)CCC)c(=O)[nH]1`: the “activity change, negative = inhibition” value was inactive: 13.4%. Next, `CCNc1ncc2ncc(=O)n(CCOC)c2n1`: inactive: 14.9%. With `COc1ccccc1CNc1cc(-c2ccccc2CN(C)C)ncn1`, the “activity change, negative = inhibition” value was inactive: 11.1%. In the case of `NCCC(O)C(=O)NC1C[C@@H](N)[C@H](O[C@@H]2OC(CN)C(O)C(O)C2O)C(O)[C@H]1O[C@H]1OC(CO)C(O)C(N)C1O` (stereo partly specified) it was inactive: 1.68%; in that of `O=c1cnc2cnc(Oc3ccccc3)nc2n1CCc1ccccc1`, inactive: 5.52%. In the case of `COc1ccc(CNc2ccnc(-c3ccccc3CN(C)C)n2)c(OC)c1` it was inactive: -0.163%; in that of `O=C(O)CC(O)C(=O)O` (stereo unspecified), inactive: 18.1%; in that of `Cc1cnc(CNc2nc(-c3ccc(C(=O)N(C)C)cc3)nc3ccccc23)cn1`, inactive: -11.7%. For `O=c1c(-c2cccs2)nc2cnc(Oc3ccccc3)nc2n1-c1ccccc1`, the “activity change, negative = inhibition” value was inactive: 15.1%. Take `CCCCCCC[N+](CC)(CC)CCCCc1ccc(Cl)cc1`: the “activity change, negative = inhibition” value is inactive: 453% [at 75.8 µM]. Turning to `CNCCCC1c2ccccc2C=Cc2ccccc21`, the activity change, negative = inhibition entry is “inactive”.

With `COc1cccc(-c2cncnc2NCc2ccc(OC)cc2OC)c1`, the “activity change, negative = inhibition” value is inactive: 15.5%.

`CCNc1ncc2nc(-c3cccs3)c(=O)n(Cc3ccc(F)cc3)c2n1`: the “activity change, negative = inhibition” value is inactive: 21%. Next, `CCOC(=O)C1=C[C@@H](OC(CC)CC)[C@H](NC(C)=O)[C@@H](N)C1`: inactive: 18.2%; `O=c1cnc2cnc(N3CCNCC3)nc2n1Cc1cccs1`: inactive: 18.9%; `CCCCNC(=O)c1sc2ncnc(NCC3CCCO3)c2c1C` (stereo unspecified): inactive: 6.46%. In the case of `COCCn1c(=O)c(-c2cccc(C#N)c2)nc2cnc(Oc3ccccc3)nc21` it was inactive: 4.76%. With `COCCn1c(=O)c(-c2cc(F)cc(F)c2)nc2cnc(OC)nc21`, the “activity change, negative = inhibition” value is inactive: 12%. In the case of `C=CC[n+]1cccc2cc(Br)ccc21` it was inactive: 19.8%. Next, `COc1ccc(Oc2ncc3nc(-c4cc(F)cc(F)c4)c(=O)n(C[C@H]4CCCO4)c3n2)cc1`: inactive: -19.2%; `CC(C)(C)C(=O)Oc1ccc(S(=O)(=O)Nc2ccccc2C(=O)NCC(=O)O)cc1`: inactive: 13.4%. On to `CC(C)Cc1nc2cc(NS(=O)(=O)N(C)C)cc(C(=O)N3CC4(C)CC3CC(C)(C)C4)c2n1C` (stereo unspecified), for which the “activity change, negative = inhibition” value was inactive: 9.93%. For `CSc1ccc2c(c1)C(N1CCN(C)CC1)Cc1ccccc1S2` (stereo unspecified), the activity change, negative = inhibition result is “inactive”.

With `C[C@H]1COc2c(C3(N)CC3)c(F)cc3c(=O)c(C(=O)O)cn1c23`, the “activity change, negative = inhibition” value was inactive: 22.2%. In the case of `CC(C(=O)O)c1ccc2c(c1)Cc1cccnc1O2` (stereo unspecified) it was inactive: 13%; in that of `COc1ccccc1-c1ccnc(-n2ncc(C(=O)NCC3(N4CCOCC4)CCCC3)c2C)n1`, inactive: -2.27%; in that of `CO[C@H]1[C@H](NC(=O)C(C)C)c2ccccc2C12CCN(Cc1cnc(N(C)C)s1)CC2`, inactive: -2.94%.

For `CCCCCCCCCCCCCCCCN`, the “activity change, negative = inhibition” value was inactive: 5.57%.

Take `COC(=O)C[C@H](NC(=O)[C@H](C)NC(=O)[C@@H](NC(=O)OCc1ccccc1)C(C)C)C(=O)CF` (Cbz-Val-Ala-Asp(OMe)-CH2F): the “activity change, negative = inhibition” value was inactive: 15.6% [at 201 µM]. In the case of `O=C1CCC(O)CCN1CCSc1ccccc1` (stereo unspecified) it was inactive: 11.9%; in that of `C=C[C@](C)(O)CCC1C(=C)CC(O)C2C(C)(C)CCCC12C` (stereo partly specified), inactive: -20%. In the case of `Cc1cnc(CNc2ncncc2-c2ccoc2)cn1` it was inactive: 15.5%; in that of `O=C/C=C/c1ccc(O)cc1`, inactive: 7.33%; in that of `CC(=O)Nc1ccccc1`, “inactive”. Turning to `CCOC(=O)C[C@H]1c2ccc(C(F)(F)F)cc2S(=O)(=O)N1C(C)C`, the “activity change, negative = inhibition” value is inactive: -20.7%. Next, `COc1ccccc1-c1nccc(N2CCN(C)CC2)n1`: inactive: 1.96%. In the case of `CCCN1C[C@H](CSC)C[C@@H]2c3cccc4[nH]cc(c34)C[C@H]21` it was “inactive”; in that of `COC(c1ccccc1)(c1ccccc1)[C@H](Oc1nc(C)cc(C)n1)C(=O)O`, inactive: 16.7%.

As for `O=C1CCC[C@@H]2CC(N(Cc3cc4ccccc4s3)c3ccccc3)C[C@@H]3CCN1[C@H]23` (stereo partly specified), the “activity change, negative = inhibition” value was inactive: 4.08%. Next, `CC1(C)[C@@H]2CC[C@@]1(C)C(=O)C2`: “inactive”. On to `COC(=O)C1=C(C)NC(C)=C(C(=O)OCCN2CCN(C(c3ccccc3)c3ccccc3)CC2)C1c1cccc([N+](=O)[O-])c1` (stereo unspecified), for which the “activity change, negative = inhibition” value was inactive: -15.8%. With `O=C(O[C@H]1[C@H](Cc2ccccc2)NS(=O)(=O)[C@H]2C[C@@H]3C=C[C@]12O3)c1ccccc1Br`, the “activity change, negative = inhibition” value was inactive: 1.13%.

For the compound `Cc1c(C(=O)NC2CCCC2)sc2ncnc(NCCN(C)C)c12`, the “activity change, negative = inhibition” value was inactive: 9.79%. As for `C=Cc1c(C)c2cc3[nH]c(cc4nc(cc5nc(cc1[nH]2)C(C)=C5CCC(=O)O)C(CCC(=O)O)=C4C)c(C)c3C=C`, the activity change, negative = inhibition result is “inactive”.

For the compound `C[C@H]1CCC(=O)N(CCSc2ccc(Br)cc2)CC1`, the “activity change, negative = inhibition” value was inactive: 0.975%.
